This is an account of results in publication PMC12136788.

Some of the results follow.

The labels stand for the following.
B1: chr3:122252165:122252166:-_ENSMUSG00000039735_ENSMUST00000162409|mus_hu|FALSE|FALSE (ssRNA)
RNA: GGGAGUUCUACAGUCCGACGAUCAAUGCGCUGCUGUAGUUUUUUACGUCUCUGUUCUGGUGGCAGAUGACUGAAAUCUUCUAGUGCUGGGCCCUUUGGCUUCUUUCCAAAGAGCCACAAUUUGCCCUUGGCCUUUCCUACUGUCAACAGAGGAUUGAGCAUCA
B2: chr13:47345604:47345605:-_ENSG00000139684_ENST00000378720|perfect_dup|motif|central (ssRNA)
RNA: GGGAGUUCUACAGUCCGACGAUCCAGGUACUUAGCAUGGUGUCUGAUGUGGUCAGCGAUGAAAGUUGCAAUGAAGUAGUAGCGGUGAUCAUAACCCUCUUGUAGUCUAAACACAACAGGGAUUUUCUUCUCUGUGCAGGCAGCCAACAGAGGAUUGAGCAUCA
B3: chr7:108137184:108137185:-_ENSG00000135241_ENST00000257694|hu_hu|motif|central (ssRNA)
RNA: GGGAGUUCUACAGUCCGACGAUCUCGAUAAAGUUCCUCACAUUCAUCCAAGGGCAUAUGAAACAACCCCAACAUGAAAGCGGAUAUGGCACCUGUGCUUACACCACAAAUGUAAUCAAAGAGCUGAUGAACUGGCUUCUGAGUCAACAGAGGAUUGAGCAUCA
B4: chr5:56189439:56189440:+_ENSG00000095015_ENST00000399503|hu_hu|motif|central (ssRNA)
RNA: GGGAGUUCUACAGUCCGACGAUCAAAGACUGGAUGCUUCAGUAGCUCUCUUGAUGGAGGUCUGUCCUGAGGUUGAAGUUCGGAACAACGAAGAGCCACAUCUCGUAAACCAGGAGACAAAUGUGAAGGGAUCGAUGGAGCAGUCAACAGAGGAUUGAGCAUCA
B5: chr9:24234919:24234920:-_ENSMUSG00000043067_ENSMUST00000142064|mus_hu|FALSE|FALSE (ssRNA)
RNA: GGGAGUUCUACAGUCCGACGAUCGUAAACCAGCUCUCCAUGAUCAAACUGGUGUUUUCUUACAUGUGUCUGUUGUUUAGCUAAGACACCCCACAUAUCACUAAUAAUCUUUCUAACAAUAGCAACAAACACUACAAGAACAACCAACAGAGGAUUGAGCAUCA
B6: chr1:235506033:235506034:+_ENSG00000152904_ENST00000391855|hu_hu|FALSE|FALSE (ssRNA)
RNA: GGGAGUUCUACAGUCCGACGAUCUUAACAUUAUUCAUUUUCUUCUUUGAACAUCUUACUUAAGUGUUUUACUAAGGCUACUAGCUCAGGGUUCCCACCACGUGCAUCAAUCUGUUUAUAGGCUUUAGCUUCAAGCUCUUUAAGCAACAGAGGAUUGAGCAUCA
B7: chr1:184247048:184247049:-_ENSMUSG00000047539_ENSMUST00000051431|mus_mus|motif|central (ssRNA)
RNA: GGGAGUUCUACAGUCCGACGAUCCUGGAGCUAGAGCCAUAUUCCAAUCUACUUCCUAUUCCGAAGUCGUUUGGAUUUCCGGAGAGAGUCUAUGGCUUCCGUUGCCUUCCGUCGUUUCCGAGGGGACUCCUCACUCUGCCCAGACAACAGAGGAUUGAGCAUCA
B8: chr2:71371598:71371599:+_ENSG00000124383_ENST00000244230|hu_hu|motif|central (ssRNA)
RNA: GGGAGUUCUACAGUCCGACGAUCAAAGUGGAAGUUUGAGAGGGCAUCCAAUUUUAAGAAGAGGGAAUCCAUCAUCUUCUGAAUUUCGGCAUGUUCUGGAUUUUCUUCUUCUGCUGUUUUUUGCUGGUUGAGUUUGAUGUACUCCAACAGAGGAUUGAGCAUCA
B9: 130144383_130144503_4556_CDS_ENSMUSG00000030779_ENSMUST00000052135|mouse|control|control (ssRNA)
RNA: GGGAGUUCUACAGUCCGACGAUCGUCCUUGGCUCUGCCCUUCUCACUGGACGCACUGCCCUUUGAGCUCCUGAGCUCGUGCUGCAUCAGCUCGUGGCUCGCCUCCUUGGGAAGCUUCUGCAGUUUCUCGGGCUGCUCGCUUUCCAACAGAGGAUUGAGCAUCA
B10: chr12:42180722:42180723:-_ENSMUSG00000036295_ENSMUST00000043884|mus_hu|mus_mus_mus_hu_True|38_48 (ssRNA)
RNA: GGGAGUUCUACAGUCCGACGAUCCUGUAGGAGAAGAAUCUGUGUGUUAGCUGGCAAUCUGGCUGGGAAAGUUAAAAGACCUAAAUCAUUACAGUCCACUGUCGAUGCUUCCAUAUAAAUGGAUCUGGGUGUAAACCAAGGCCUCAACAGAGGAUUGAGCAUCA
B11: chr6:67234166:67234167:+_ENSMUSG00000036371_ENSMUST00000042990|mus_mus|FALSE|FALSE (ssRNA)
RNA: GGGAGUUCUACAGUCCGACGAUCUGAAGAAUGCAUAUUCUCUGAAAAUUAUGAAAACAUCCCUGCUACCAAUACAUUUCUAAAUACAAAACUGACUAACAUAUUUUGUUACUUCUGUGUAGCUAGAGAAGUUCGUUUUCAAAACAACAGAGGAUUGAGCAUCA
B12: 44721363_44733459_1353_CDS_ENSG00000105953_ENST00000222673|human|control|control (ssRNA)
RNA: GGGAGUUCUACAGUCCGACGAUCGGAGCGGGCCAUCCGAGGGUCGGUGGUGAAGCCGAUCUGGUUGUUGACGACCACGUGCACGGUGCCAUGAGUUGUGUAGGAUGGCAGGUCGCUGAGGUGGAAGGUCUCGUACACAAUGCCCAACAGAGGAUUGAGCAUCA
B13: chr8:29961843:29961844:+_ENSG00000104660_ENST00000321250|hu_hu|FALSE|FALSE (ssRNA)
RNA: GGGAGUUCUACAGUCCGACGAUCGGCAAGUUCCUUACAAGCGUUACUCAUAGCAUCUGUAUCAUCCACUAAUCUUCUUGCUAUGCAGUAUGGAAUAGGUGAAAGGAUGUAAAAAAAUAGAACAAAGAGGGGCCAGUAUUUGUUCAACAGAGGAUUGAGCAUCA
B14: chr1:44183430:44183431:+_ENSMUSG00000041684_ENSMUST00000114709|mus_hu|FALSE|FALSE (ssRNA)
RNA: GGGAGUUCUACAGUCCGACGAUCUUUAUAGAUUGAGGUCGCCUGGUUGAGAAAGGCAUAGUCCGAACAGAUGGCAUAAAUUUUUUCCCGUGUAUGAGUCACUGGACAACUCCAUGGAUAAUGACCAUCUCCUUUGGGACCCAACAACAGAGGAUUGAGCAUCA
B15: chr1:231413285:231413286:+_ENSG00000116906_ENST00000366647|hu_hu|FALSE|FALSE (ssRNA)
RNA: GGGAGUUCUACAGUCCGACGAUCGUUUGUUGUAAUGAGUCCUUCGAUGAGAGUAAUUACGUGACCGAAUUUUCCAUAACUAUUUGUUGAUUAUUAAAGUUUUGCAGUGGCUGGUUUUCCUAUUGGUGUCUUACAACCAAGCAUCAACAGAGGAUUGAGCAUCA
B16: chr1:90180492:90180493:+_ENSG00000171488_ENST00000370454|hu_mus|motif|central (ssRNA)
RNA: GGGAGUUCUACAGUCCGACGAUCUUUCAUCUGCUCCCGGACAUCUGAGGGCAGAGUCUCAAACAGAGCAUCUUCCACAACGGGCCCGGCUCGCUUCAGAGCCCGGCAGUCUCCCAGCUCGGGAGGGAGGACUUCAAAGUGAUUCAACAGAGGAUUGAGCAUCA
B17: chr12:123346578:123346579:+_ENSG00000130787_ENST00000253083|hu_hu|FALSE|FALSE (ssRNA)
RNA: GGGAGUUCUACAGUCCGACGAUCAGCUCUAGCUCGGAAUAUUAAAAACACUAUUUUCUGAAGAGGAAUAUUAAAAACACUAUUUUCUGAAGAGUUGAGGCUCAGGCCUACCGGGUCCUGGCUGCACCCCAAAGUUCCUUCUGCCAACAGAGGAUUGAGCAUCA
B18: chr11:77340882:77340883:-_ENSG00000074201_ENST00000525064|hu_mus|motif|central (ssRNA)
RNA: GGGAGUUCUACAGUCCGACGAUCAACAUACAAAUGCUCUUGAGGGUAAGCGUUUGGAUCCCUGGACACCGCAUGUAAACGGAUGGUGGGGUAUUCCAGUGAGAAUCCUAAUCCCGAACCAUCUAACCAGGACAGGCGGCUCUCCAACAGAGGAUUGAGCAUCA
B19: chr2:38870762:38870763:+_ENSMUSG00000026755_ENSMUST00000090993|mus_mus|FALSE|FALSE (ssRNA)
RNA: GGGAGUUCUACAGUCCGACGAUCCCUGCAAAGAAUUUAGGAAUCAAUAAGACAAUUUCUCCCUCCACCUCAAAAGUAAAAUACAUUCCAGAAGAUGUGUCCUGAAGUAUUUAGUUGGGAGUUCUAGGAAGAUGGUCCAUUGUCCAACAGAGGAUUGAGCAUCA
B20: chr1:244855233:244855234:+_ENSG00000121644_ENST00000302550|hu_mus|hu_hu_hu_mus_True|48_108 (ssRNA)
RNA: GGGAGUUCUACAGUCCGACGAUCCAUUAAAUGAUAAGCGUUGCCCUUAUACUCUUUCCCCAGUUCUUCUACAAUUUUCUCUAUAUCAUCUUCUAGGAAGUCCGUACUUCCUAGAACAACAGCUUCUUUAAAUUUAAAUGUUUCCAACAGAGGAUUGAGCAUCA
B21: chr10:84155644:84155645:+_ENSMUSG00000034453_ENSMUST00000077175|mus_mus|motif|central (ssRNA)
RNA: GGGAGUUCUACAGUCCGACGAUCGCUGUAGCUCAUCACGGCAACAGUUGCGUUCUGGCCAGCCGGCAACUUCUCAAAAUCGGUCAACUCGAUUGUUUUUGUUUUAACCAUGGGCUUUUGUGGAUAUGCUAGUAGAUACAUAAGCAACAGAGGAUUGAGCAUCA
B22: 81609093_81609612_1819_CDS_ENSMUSG00000022390_ENSMUST00000109554|mouse|control|control (ssRNA)
RNA: GGGAGUUCUACAGUCCGACGAUCGCGGCCGAGGAGGACGUCCCUUCUGCACUUGUGCUCGAGGCCCUCACGGUAGGUAUAGUCGCCAGCCCUGGGGCCUGUUUUGGGGUAGCACAACUGGCAGGCCUGCUUGAACUCGUGGGUCAACAGAGGAUUGAGCAUCA

For this assay, the target named is T1, UNK ZnF1-3 (human, UniProt Q9C0B0 31-174).
T1 sequence: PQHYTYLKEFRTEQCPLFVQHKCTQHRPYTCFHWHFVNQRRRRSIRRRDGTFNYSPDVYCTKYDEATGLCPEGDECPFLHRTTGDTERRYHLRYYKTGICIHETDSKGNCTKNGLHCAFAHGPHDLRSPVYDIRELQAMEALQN
The assay is described as follows: nsRBNS (natural sequence RNA bind-n-seq); RBNS binding buffer (assumed for nsRBNS): 25 mM Tris pH 7.5, 150 mM KCl, 3 mM MgCl2, 0.01% Triton X-100, 500 ug/ml BSA, 20 U/ml SUPERase-In, 4 C; UNK is unkempt and MSI1 is Musashi-1; names of the RNAs are library labels; protein concentration not given here; high values mean tight binding.
Regarding B1, the binding signal was 0.449 enrichment R.
The result for B2 reads 1.24 enrichment R; that for B3, 1.15 enrichment R.
The figure for B4 is 1.19 enrichment R; for B5 it is 1.21 enrichment R.
As for B6, the binding signal amounted to 0.715 enrichment R.
Consider B7, for which the binding signal stood at 0.741 enrichment R.
The result for B8 reads 1.09 enrichment R; that for B9, 0.437 enrichment R; that for B10, 1.32 enrichment R.
The result for B11 reads 0.623 enrichment R; that for B12, 0.487 enrichment R; that for B13, 1.4 enrichment R.
The figure for B14 is 1.36 enrichment R.
B15 yielded a binding signal of 0.746 enrichment R.
The result for B16 reads 1.05 enrichment R; that for B17, 1.47 enrichment R; that for B18, 1.36 enrichment R.
The result for B19 reads 1.6 enrichment R; that for B20, 1.25 enrichment R.
The result for B21 reads 1 enrichment R; that for B22, 0.897 enrichment R.
